# Results as given in publication PMC4336329 (PLoS ONE, 2015).
# The whole screen tested about 310,000 compounds, of which about 14,000 (4.5%) showed an effect of 50% or more. Effects have a minus sign here. This is one part of the list.
# Molecular target: human ether-à-go-go-related gene (hERG) potassium channel (human, UniProt Q12809)
# Assay: primary screen, population patch clamp on CHO cells stably expressing hERG
# 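Further: peak tail current of the secondary pulse compared with the same well before compound.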
# Sequence of human ether-à-go-go-related gene (hERG) potassium channel (Q12809 whole entry, looked up): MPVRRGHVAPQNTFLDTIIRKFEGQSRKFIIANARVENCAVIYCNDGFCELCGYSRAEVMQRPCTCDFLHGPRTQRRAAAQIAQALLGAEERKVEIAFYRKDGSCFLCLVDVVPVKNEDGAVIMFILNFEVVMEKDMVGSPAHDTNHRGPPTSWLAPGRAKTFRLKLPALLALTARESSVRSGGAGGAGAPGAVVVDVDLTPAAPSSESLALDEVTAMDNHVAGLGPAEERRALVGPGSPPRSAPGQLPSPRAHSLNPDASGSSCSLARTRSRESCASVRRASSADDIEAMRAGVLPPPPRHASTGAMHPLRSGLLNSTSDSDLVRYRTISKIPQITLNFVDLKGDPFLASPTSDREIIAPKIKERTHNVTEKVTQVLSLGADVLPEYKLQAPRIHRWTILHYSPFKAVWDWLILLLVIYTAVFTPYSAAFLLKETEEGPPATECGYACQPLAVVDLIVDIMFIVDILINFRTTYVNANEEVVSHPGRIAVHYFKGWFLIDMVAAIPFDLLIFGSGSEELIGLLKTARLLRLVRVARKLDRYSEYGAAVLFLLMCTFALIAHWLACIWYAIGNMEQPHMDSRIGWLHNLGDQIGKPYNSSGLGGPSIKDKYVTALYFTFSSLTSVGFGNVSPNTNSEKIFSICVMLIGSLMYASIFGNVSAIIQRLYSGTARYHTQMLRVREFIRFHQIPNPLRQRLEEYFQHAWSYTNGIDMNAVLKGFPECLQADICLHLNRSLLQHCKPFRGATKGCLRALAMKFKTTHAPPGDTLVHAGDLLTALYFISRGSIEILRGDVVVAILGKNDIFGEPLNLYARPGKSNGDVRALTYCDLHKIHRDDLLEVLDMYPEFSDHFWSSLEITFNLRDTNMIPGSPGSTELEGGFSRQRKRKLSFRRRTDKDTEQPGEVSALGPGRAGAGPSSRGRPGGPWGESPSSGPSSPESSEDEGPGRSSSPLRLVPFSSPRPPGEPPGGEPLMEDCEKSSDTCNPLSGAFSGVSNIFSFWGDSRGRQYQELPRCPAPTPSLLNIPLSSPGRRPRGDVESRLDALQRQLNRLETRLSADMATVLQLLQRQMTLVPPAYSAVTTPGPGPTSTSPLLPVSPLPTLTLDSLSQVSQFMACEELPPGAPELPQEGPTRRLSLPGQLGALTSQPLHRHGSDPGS
row,Compound,"hERG current change (%, negative = inhibition) at 10uM [%]"
1,CCCC(=O)Nc1nnc(-c2ccc3c(c2)OCO3)s1,6.35
2,Cc1cccc(-c2noc(-c3ccc(Cl)cc3[N+](=O)[O-])n2)c1,16.8
3,COc1ccc(Cc2nc3ccccc3c(=O)n2N)cc1OC,9.36
4,O=C(C(=O)N1CCN(c2ccc([N+](=O)[O-])cc2)CC1)c1cn(CC(=O)N2CCOCC2)c2ccccc12,-8.72
5,Cc1cccc(NCC(=O)N/N=C/c2ccc(Br)cc2)c1,20.1
6,CC(Nc1c[nH]c(=O)[nH]c1=O)c1ccccc1 (stereo not shown),14.8
7,COc1ccc(/C=C(/NC(=O)c2ccccc2)C(=O)N2CCCCC2)cc1OC,-7.13
8,O=C(O)CC1NC(=O)N(C2CCCCC2)C1=O (stereo not shown),6.18
9,NC(=O)CN(c1ccccc1)C1SC(=O)N(Cc2ccccc2)C1=O (stereo not shown),-7.07
10,S=C(Nc1ccc(Cl)cc1)c1sc(N2CCCCC2)nc1N1CCOCC1,16.8
11,CC1CCC(C(C)C)C(OP(=O)(c2ccccc2)C(O)c2ccncc2)C1 (stereo not shown),13.8
12,CC(=O)N1CCN(Cc2cc(=O)n3cc(Cl)c(C)c(Cl)c3n2)CC1,-3.72
13,CC(C)(C)C(=O)Nc1ccc(S(=O)(=O)N2CC3CC(C2)c2cccc(=O)n2C3)cc1 (stereo not shown),9.99
14,O=S(=O)(c1ccccc1)N1CCN(C(c2ccccc2)c2ccc(OC(F)(F)F)cc2)CC1 (stereo not shown),19
15,Cc1cc(NC(=O)CCC(=O)N(CC2CCCO2)C(C(=O)NC2CCCC2)c2cccnc2)no1 (stereo not shown),12.9
16,CCCCn1c(=O)[nH]c(=O)c2c1nc(-c1ccccc1F)n2Cc1ccccc1,9.61
17,CCCCNC(=O)NNC(=O)c1ccc(F)cc1,0.168
18,CCN1CCSc2ccc(C(=O)NCc3ccccc3F)cc21,-20.8
19,O=C(CNC(=O)c1cccc(F)c1)N/N=C/c1cccnc1,6.58
20,O=C1C(NS(=O)(=O)c2cccs2)=C(N2CCN(Cc3ccccc3)CC2)C(=O)c2ccccc21,-35.2
21,CCC(CC)=NNc1cccc([N+](=O)[O-])c1,16.9
22,O=C1c2ccccc2C(=O)N1CCC#Cc1ccc2cc(CCO)oc(=O)c2c1,15.7

row,Compound,"hERG current change (%, negative = inhibition) at 10uM [%]"
1,COc1ccc(-c2cn(-c3ccc(C)cc3C)c(=O)[nH]2)cc1OC,5.96
2,Cc1ccc(C)c(N2CCN(S(=O)(=O)c3cccc4cccnc34)CC2)c1,-22.9
3,Cc1ccccc1SCC(=O)NCCCn1ccnc1,-18.8
4,CCC(C(=O)OCC(=O)NC(=O)c1ccccc1OC)c1ccccc1 (stereo not shown),10.6
5,CC(OC(=O)CN1C(=O)NC2(CCCC2)C1=O)C(=O)c1ccc(C(C)(C)C)cc1 (stereo not shown),-28.7
6,CCNC(=O)N1CCN(CCCC(c2ccc(F)cc2)c2ccc(F)cc2)CC1.Cl,-82.3
7,O=C(CSc1nc2ccccc2c(=O)n1-c1ccccc1)N1CCCC1,-3.59
8,CCn1c(SCC(=O)Nc2nc3ccc(C)cc3s2)nc2c(c1=O)SC(C)C2 (stereo not shown),-12.6
9,CCC(Oc1ccc(Br)cc1Cl)C(=O)Nc1nnc(C2CC2)s1 (stereo not shown),-4.12
10,Oc1ccc(Nc2nc(Cl)nc(NCc3ccco3)n2)cc1,-20
11,O=C(CCC(=O)c1ccc(F)cc1)OCc1nnc(-c2ccc([N+](=O)[O-])cc2)o1,-47
12,COc1ccc(-c2cn3cccnc3n2)cc1NC(=O)c1cccs1,-13
13,O=C1CC(c2ccccc2)c2cc(O)ccc2O1 (stereo not shown),11.1
14,O=C(NCc1ccc2c(c1)OCO2)c1cc2ccccc2o1,-19.5
15,CCOC(=O)C1CCN(CC(O)COc2ccc(C(=O)CC)cc2)CC1.Cl (stereo not shown),-68.5
16,COc1cccc(N2CCN(CC(=O)NC(C)c3ccccc3)CC2)c1 (stereo not shown),-3.41
17,O=C(O)c1nc(N2CCOCC2)nc(N2CCOCC2)n1,-8.37
18,Cn1ncc(C#N)c1NC(=O)C1CC(c2ccc(Cl)cc2)=NO1 (stereo not shown),-8.44
19,O=C(CCc1nc2sc3c(c2c(=O)[nH]1)CCCC3)Nc1ccccc1Cl,7.93
20,COCCNC(=S)N/N=C/c1c2ccccc2cc2ccccc12,15.5
21,CC(=O)c1cccc(NC(=O)COC(=O)c2ccccc2C)c1,-14.4
22,O=c1[nH]c(=S)n(C2CC2)c(O)c1C=NCc1cccnc1,-13.9

row,Compound,"hERG current change (%, negative = inhibition) at 10uM [%]"
1,O=S(=O)(Nc1nc2ccccc2s1)c1ccc(Cl)nc1,4.73
2,CCS(=O)(=O)N1CCC(C(=O)NCCCN2CCC(Cc3ccccc3)CC2)CC1,-65.5
3,Cn1cccc1-c1cc(C(=O)N/N=C/c2cc(Br)ccc2O)[nH]n1,31.3
4,COc1ccc(-c2csc(NC(=O)CN3C(=O)CCC3=O)n2)c(OC)c1,-16.5
5,Cn1c(=O)n(C)c2cc(C(=O)c3ccccc3)ccc21,-1.74
6,O=C(CSc1nc2ccccc2s1)N/N=C/c1ccco1,11.5
7,COc1ccc(N2CC(NC(=O)NC(C)(C)C)CC2=O)cc1 (stereo not shown),8.87
8,Cn1c(N)c(C(=O)COC(=O)c2cc(-c3ccco3)nc3ccccc23)c(=O)n(Cc2ccccc2)c1=O,-6.06
9,CSc1nc(N(C)C)nc(N(C#N)CCOC(C)=O)n1,3.77
10,COc1ccc(C(=O)NCCc2nnc3ccc(SCC(=O)NCCc4ccc(OC)c(OC)c4)nn23)cc1,0.371
11,Cc1ccc(S(=O)(=O)N2CCN(C(=O)COC(=O)c3ccc(O)cc3)CC2)c(C)c1,0.617
12,Cc1cc(C)n(-c2nc3ccccc3c(=O)n2OC2CCCCC2)n1,2.59
13,CCOC(=O)c1[nH]c2ccc(OC)cc2c1NC(=O)CCN1CCN(Cc2ccccc2)CC1,-57.1
14,Cc1cccc(CC(=O)NC2CCN(C)CC2)c1,9.22
15,Cc1nn(-c2ccc(C(=O)O)cc2)c(C)c1Oc1ccccc1O.O=S(=O)(O)O,-3.2
16,Cc1c(CCC(=O)NCCCCCC(=O)O)c(=O)oc2cc3occ(-c4ccccc4)c3cc12,-9.41
17,COc1ccc(CCN(C)Cc2c(O)ccc3ccccc23)cc1OC,-74
18,COc1cc(C(=O)N/N=C/c2cccc(Oc3ccccc3)c2)ccc1O,-3.79
19,c1cc(CNc2ccc3c(c2)OCCO3)ccn1,14.7
20,CN(CC(=O)Nc1cccc(F)c1)C(=O)CSc1ccccc1,-3.67
21,COc1cccc(-n2nnc3c(=O)n(CC(=O)NCC4CCCO4)cnc32)c1 (stereo not shown),9.31
22,CCN(CC(=O)NCCc1ccc(S(N)(=O)=O)cc1)Cc1nc2cc(OC)c(OC)cc2c(=O)[nH]1,0.804

row,Compound,"hERG current change (%, negative = inhibition) at 10uM [%]"
1,CC1(C)CC(NC(=O)c2ccc(-c3ccc([N+](=O)[O-])cc3)o2)CC(C)(C)N1,-49
2,CSCc1cc(N2CCCC2)nc(-c2ccccc2)n1,-23.2
3,CCOC(=O)C1=C(C)NC(=O)NC1c1ccccc1Cl (stereo not shown),1.8
4,COc1cc2[nH]c(C(=O)N3CCC(Cc4ccccc4)CC3)cc2c(OC)c1OC,22.4
5,Cc1[nH]c2ccccc2c1CCN(Cc1cccnc1)C(=S)NC(C)(C)C,15
6,COc1ccc(N/N=C/c2c(O)n(-c3cccc(C)c3)c(=O)[nH]c2=O)cc1,-1.72
7,Cc1nnc(SCC(=O)NNC(=O)c2ccco2)n1-c1cccc(Cl)c1,9.62
8,CN(C)CCSc1nc(N)c2c3c(sc2n1)COC(C)(C)C3,-10.7
9,Cc1ccc(S(=O)(=O)Nc2ccc(C(=O)NCc3cccnc3)cc2)cc1,5.32
10,Cc1ccc(C(CC(=O)NCc2ccco2)c2ccccc2)c(O)c1 (stereo not shown),-0.367
11,CC(=O)Nc1ccc(S(=O)(=O)Nc2cccc(-c3cn4c(n3)SCC4)c2)cc1,22.5
12,CCOC(=O)c1sc2nccc(N(C)C)c2c1N=CNOC,-24.1
13,Cc1nc(SCC(O)CCl)c([N+](=O)[O-])[nH]1 (stereo not shown),2.9
14,COc1ccc(N2CCN(C(=O)c3c(C)nn(-c4ccccc4)c3C)CC2)cc1,-9.14
15,CN(C)CCCN=Cc1c(O)n(CCc2ccccc2)c(=O)[nH]c1=O,-0.99
16,COc1ccc(C(=O)c2ccc3oc(-c4ccc(OC)cc4)c(C#CCCO)c3c2)cc1,19.5
17,CN1C(=O)CC(C(=O)Nc2ccc(F)cc2)SC1=Nc1ccc2c(c1)OCO2 (stereo not shown),2.25
18,Cn1ccnc1SCc1ccc([N+](=O)[O-])cc1,-2.75
19,Cc1cc(C)nc(NN2C(=O)C=CC2=O)n1,24.3
20,Cc1cc(F)ccc1NCc1ccccc1[N+](=O)[O-],-8.29
21,Cn1cccc1CC(=O)N/N=C/c1cccc([N+](=O)[O-])c1,29.2
22,O=C(O)[C@H](Cc1ccccc1)NC(=O)N1CCN(c2ccc(F)cc2)CC1,-11.6
